# Some of the results follow. One pool of 16,384 single-stranded DNAs met each Rep nickase domain in vitro (3 µM enzyme, 1 h, 37 °C); shown is the middle of each 90-letter strand. A value is the log2 ratio of uncut reads to the pool without enzyme; more negative means more cut, near 0 not cut, and no call is made. The scaling is to total reads; uncut strands gain when others are lost, and binding without cutting may add a little.
# Experiments:
# Test in all cases: uncleaved DNA left, log2 of reads against the no-enzyme library (log2 ratio); higher = less cleavage (more negative = more Rep cleavage of the k-mer); sequences stand for … in CTCGTCCG…ACCGGAGA
# [1] = system: T1, Rep nickase domain of Muscovy duck circovirus
# T1 sequence (residues 1-111, tag not shown): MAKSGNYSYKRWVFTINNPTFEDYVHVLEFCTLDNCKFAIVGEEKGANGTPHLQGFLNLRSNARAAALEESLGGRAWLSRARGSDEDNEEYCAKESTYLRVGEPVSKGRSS
# Protocol: (§1)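 A pool of 90-nt single-stranded DNAs with seven random bases just before the constant AC of the nick site (name = the seven bases) was cut by 3 µM recombinant His6-SUMO-tagged Rep nickase domain (300 nM DNA, 50 mM HEPES pH 8.0, 50 mM NaCl, 1 mM MnCl2, 1 h, 37 °C, three replicates). Uncut DNA was amplified and sequenced.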
# [2] = system: T2, Rep nickase domain of banana bunchy top virus
# T2 sequence (residues 1-94, tag not shown): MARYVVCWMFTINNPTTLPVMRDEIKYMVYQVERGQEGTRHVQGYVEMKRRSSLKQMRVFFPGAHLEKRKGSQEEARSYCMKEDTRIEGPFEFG
# Protocol: as §1
# [3] = system: T3, Rep nickase domain of cabbage leaf curl virus
# T3 sequence (residues 1-116, tag not shown): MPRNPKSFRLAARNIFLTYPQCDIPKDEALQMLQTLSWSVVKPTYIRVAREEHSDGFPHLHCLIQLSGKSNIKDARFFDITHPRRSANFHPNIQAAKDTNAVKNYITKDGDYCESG
# Protocol: as §1
# [4] = system: T4, Rep nickase domain of chickpea chlorotic dwarf virus
# T4 sequence (residues 1-124, tag not shown): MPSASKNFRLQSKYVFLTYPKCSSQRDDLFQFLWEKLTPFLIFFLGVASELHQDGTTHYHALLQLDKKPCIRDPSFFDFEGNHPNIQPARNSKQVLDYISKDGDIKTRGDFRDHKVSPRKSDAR
# Protocol: as §1
# [5] = system: T5, Rep nickase domain of faba bean necrotic yellows virus
# T5 sequence (residues 1-98, tag not shown): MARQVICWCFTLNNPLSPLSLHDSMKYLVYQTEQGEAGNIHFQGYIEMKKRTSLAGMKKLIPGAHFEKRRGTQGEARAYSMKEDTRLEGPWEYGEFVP
# Protocol: as §1
# [6] = system: T6, Rep nickase domain of maize striate mosaic virus
# T6 sequence (residues 1-117, tag not shown): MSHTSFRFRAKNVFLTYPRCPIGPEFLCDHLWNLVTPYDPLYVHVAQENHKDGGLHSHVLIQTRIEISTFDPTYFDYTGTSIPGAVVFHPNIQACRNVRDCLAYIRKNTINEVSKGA
# Protocol: as §1
# [7] = system: T7, Rep nickase domain of porcine circovirus 2
# T7 sequence (residues 2-116, tag not shown): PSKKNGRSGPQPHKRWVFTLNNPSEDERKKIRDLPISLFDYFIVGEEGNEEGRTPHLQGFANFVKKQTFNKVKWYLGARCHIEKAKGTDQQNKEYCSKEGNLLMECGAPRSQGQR
# Protocol: as §1
# [8] = system: T8, Rep nickase domain of tomato golden mosaic virus
# T8 sequence (residues 1-124, tag not shown): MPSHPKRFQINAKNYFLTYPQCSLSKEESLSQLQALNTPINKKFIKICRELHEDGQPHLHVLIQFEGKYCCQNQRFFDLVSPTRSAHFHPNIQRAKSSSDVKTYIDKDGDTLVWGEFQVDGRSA
# Protocol: as §1
# [9] = system: T9, Rep nickase domain of tomato yellow leaf curl virus
# T9 sequence (residues 1-136, tag not shown): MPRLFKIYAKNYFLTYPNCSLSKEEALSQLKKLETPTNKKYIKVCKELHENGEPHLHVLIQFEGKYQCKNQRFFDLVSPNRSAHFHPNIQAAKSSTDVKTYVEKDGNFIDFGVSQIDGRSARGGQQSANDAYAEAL
# Protocol: as §1
# [10] = system: T10, Rep nickase domain of wheat dwarf virus
# T10 sequence (residues 1-137, tag not shown): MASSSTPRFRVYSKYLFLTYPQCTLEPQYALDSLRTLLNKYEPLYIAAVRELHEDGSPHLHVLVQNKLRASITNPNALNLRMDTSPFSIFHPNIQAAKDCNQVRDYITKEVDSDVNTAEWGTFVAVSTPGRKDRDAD
# Protocol: as §1
Sequence,uncleaved DNA left (log2) [1],uncleaved DNA left (log2) [2],uncleaved DNA left (log2) [3],uncleaved DNA left (log2) [4],uncleaved DNA left (log2) [5],uncleaved DNA left (log2) [6],uncleaved DNA left (log2) [7],uncleaved DNA left (log2) [8],uncleaved DNA left (log2) [9],uncleaved DNA left (log2) [10]
GACGTTG,0.0187,-0.0422,-0.0882,0.102,-0.179,-0.0426,0.0113,0.0155,-0.234,-0.179
GGTGGAA,0.0921,0.0132,0.513,1.24,0.125,1.93,0.154,0.0209,-0.0137,0.208
CGGAACT,0.128,0.0872,0.385,-0.154,-0.12,1.32,-0.159,-0.0254,0.0029,0.0928
GTCCCAA,0.102,0.127,0.248,0.889,-0.0771,1.76,0.0278,0.181,0.146,0.116
CTCCAAG,-0.0458,-0.0323,-0.747,-0.307,-0.18,-1.23,0.0798,0.0486,0.14,0.131
GGTCATG,-0.0304,0.0219,0.658,1.51,-0.12,1.8,0.0236,-0.00523,-0.0751,0.114
AGACGCT,-0.00494,-0.00966,0.521,0.264,-0.009,0.983,0.0784,0.0562,-0.0721,0.0154
GTAGCGC,-0.0322,-0.00709,-0.706,-0.43,-0.0756,-0.739,0.0101,-0.206,-0.0953,-0.195
GCGCCCC,0.0642,0.131,0.221,0.5,0.139,0.445,0.0639,-0.00514,0.104,0.14
ATACCTC,-0.00936,-0.112,0.096,-0.115,0.0419,0.175,-0.091,-0.0114,-0.121,-0.129
CGCCAGT,0.0553,0.0265,-0.0906,-0.151,-0.0168,-0.153,-0.0506,-0.0613,-0.0304,-0.0409
GTCGTCC,0.0849,0.14,0.44,0.808,0.0228,1.64,0.0607,0.0718,0.163,0.0697
CGGCCTA,0.0401,0.0318,0.000849,0.00997,-0.0927,0.27,-0.0754,0.0349,0.00404,0.0309
TAATGTG,0.0435,-0.0662,-1.08,-1.69,0.0739,-1.15,0.146,-0.0749,0.0764,-0.0469
GTGCCCA,-0.0086,0.163,0.257,0.949,0.0312,1.68,-0.0116,0.0193,0.0703,0.0917
CCCAGAC,0.0197,-0.0472,0.237,0.243,0.0766,-0.187,0.156,0.0243,-0.134,-0.0198
TGACCGA,-0.11,-0.045,0.0557,0.284,-0.0335,0.531,0.0243,-0.103,-0.0564,0.109
TGGTGGA,-0.0968,-0.0627,0.349,0.286,0.0304,0.391,0.0616,0.065,-0.0445,0.0222
GTATCTC,-0.0353,0.0604,0.352,0.868,-0.00487,1.61,0.129,0.0748,0.124,0.0697
TGAAGAA,0.128,-0.0157,0.151,0.0839,0.071,-0.291,-0.0248,0.139,0.0083,0.115
CACGTGG,-0.0843,0.0167,-0.00324,0.206,-0.0823,-0.313,0.0516,-0.02,-0.0402,-0.0144
ATTGAAA,0.126,0.00392,-0.00354,0.183,-1.57e-05,-0.516,0.0542,0.023,-0.0379,0.0495
GCTAAAG,-0.0285,0.0977,-0.566,-0.439,0.0121,-0.886,0.156,0.141,0.0591,0.0218
GCGAGTG,-0.0616,-0.0401,-0.179,0.332,-0.168,1.53,-0.0167,-0.146,-0.102,-0.0743
AACCAGT,0.052,-0.086,-0.403,-1.59,-0.0282,-1.05,-1.03,-0.0349,0.0141,-0.0154
TGAGTCG,-0.0856,-0.187,-0.896,-0.311,0.00672,-1.02,0.101,-0.0594,-0.055,-0.158
GTGCTGA,0.0301,0.0903,0.205,0.946,-0.0425,1.42,0.145,0.0597,0.00473,0.177
GGCATAT,0.0802,0.0322,0.707,1.72,-0.103,2.11,0.132,-0.0788,0.0723,0.147
CCGAATT,-0.0172,-0.162,0.00366,-1.55,-0.0525,-0.169,-0.828,-0.00929,0.213,-0.0956
ATTAAGC,-0.0161,0.0221,-0.216,-0.451,0.0578,-1.23,0.143,-0.0165,0.101,0.0141
